Measurements taken from the supplement of paper PMC8728848.
This is one part of the list.

Experiments:
Test in all cases: glycan array binding signal (z-score within array); higher = stronger binding
Settings in all cases: glycan notation: IUPAC condensed, linker removed
[1] = target: Neu5Ac(a2-6)Gal(b1-4)Glc
How it was run: (§1)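 Columns mapping to the same glycan were averaged after glycan names were converted to IUPAC-condensed notation. The data come from 3228 arrays in the Consortium for Functional Glycomics database, limited to those with an available protein sequence. Binding is reported as a within-array Z-score averaged across arrays of one protein sequence and across linkers.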

[2] = target: Neu5Ac(a2-6)Gal(b1-4)GlcNAc
How it was run: as §1

[3] = target: Neu5Ac(a2-6)Gal(b1-4)GlcNAc(b1-2)Man
How it was run: as §1

[4] = target: Neu5Ac(a2-6)Gal(b1-4)GlcNAc(b1-2)Man(a1-3)Man(b1-4)GlcNAc(b1-4)GlcNAc
How it was run: as §1

[5] = target: Neu5Ac(a2-6)Gal(b1-4)GlcNAc(b1-2)Man(a1-3)[Gal(b1-4)GlcNAc(b1-2)Man(a1-6)]Man(b1-4)GlcNAc(b1-4)GlcNAc
How it was run: as §1

[6] = target: Neu5Ac(a2-6)Gal(b1-4)GlcNAc(b1-2)Man(a1-3)[GlcNAc(b1-2)Man(a1-6)]Man(b1-4)GlcNAc(b1-4)GlcNAc
How it was run: as §1

[7] = target: Neu5Ac(a2-6)Gal(b1-4)GlcNAc(b1-2)Man(a1-3)[GlcNAc(b1-4)][Neu5Ac(a2-6)Gal(b1-4)GlcNAc(b1-2)Man(a1-6)]Man(b1-4)GlcNAc(b1-4)GlcNAc
How it was run: as §1

[8] = target: Neu5Ac(a2-6)Gal(b1-4)GlcNAc(b1-2)Man(a1-3)[Man(a1-6)]Man(b1-4)GlcNAc(b1-4)GlcNAc
How it was run: as §1

[9] = target: Neu5Ac(a2-6)Gal(b1-4)GlcNAc(b1-2)Man(a1-3)[Neu5Ac(a2-3)Gal(b1-4)GlcNAc(b1-2)Man(a1-6)]Man(b1-4)GlcNAc(b1-4)GlcNAc
How it was run: as §1

[10] = target: Neu5Ac(a2-6)Gal(b1-4)GlcNAc(b1-2)Man(a1-3)[Neu5Ac(a2-6)Gal(b1-4)GlcNAc(b1-2)Man(a1-6)]Man(b1-4)GlcNAc(b1-4)GlcNAc
How it was run: as §1

[11] = target: Neu5Ac(a2-6)Gal(b1-4)GlcNAc(b1-2)Man(a1-3)[Neu5Ac(a2-6)Gal(b1-4)GlcNAc(b1-2)Man(a1-6)]Man(b1-4)GlcNAc(b1-4)[Fuc(a1-6)]GlcNAc
How it was run: as §1

[12] = target: Neu5Ac(a2-6)Gal(b1-4)GlcNAc(b1-2)Man(a1-6)Man(b1-4)GlcNAc(b1-4)GlcNAc
How it was run: as §1

[13] = target: Neu5Ac(a2-6)Gal(b1-4)GlcNAc(b1-2)Man(a1-6)[Gal(b1-4)GlcNAc(b1-2)Man(a1-3)]Man(b1-4)GlcNAc(b1-4)GlcNAc
How it was run: as §1

[14] = target: Neu5Ac(a2-6)Gal(b1-4)GlcNAc(b1-2)Man(a1-6)[GlcNAc(b1-2)Man(a1-3)]Man(b1-4)GlcNAc(b1-4)GlcNAc
How it was run: as §1

[15] = target: Neu5Ac(a2-6)Gal(b1-4)GlcNAc(b1-2)Man(a1-6)[Man(a1-3)]Man(b1-4)GlcNAc(b1-4)GlcNAc
How it was run: as §1

[16] = target: Neu5Ac(a2-6)Gal(b1-4)GlcNAc(b1-2)[Neu5Ac(a2-6)Gal(b1-4)GlcNAc(b1-4)]Man(a1-3)[GlcNAc(b1-4)][Neu5Ac(a2-6)Gal(b1-4)GlcNAc(b1-2)[Neu5Ac(a2-6)Gal(b1-4)GlcNAc(b1-6)]Man(a1-6)]Man(b1-4)GlcNAc(b1-4)GlcNAc
How it was run: as §1

[17] = target: Neu5Ac(a2-6)Gal(b1-4)GlcNAc(b1-2)[Neu5Ac(a2-6)Gal(b1-4)GlcNAc(b1-4)]Man(a1-3)[GlcNAc(b1-4)][Neu5Ac(a2-6)Gal(b1-4)GlcNAc(b1-4)Man(a1-6)]Man(b1-4)GlcNAc(b1-4)GlcNAc
How it was run: as §1

[18] = target: Neu5Ac(a2-6)Gal(b1-4)GlcNAc(b1-2)[Neu5Ac(a2-6)Gal(b1-4)GlcNAc(b1-6)]Man(a1-6)[Neu5Ac(a2-6)Gal(b1-4)GlcNAc(b1-2)Man(a1-3)][GlcNAc(b1-4)]Man(b1-4)GlcNAc(b1-4)GlcNAc
How it was run: as §1

[19] = target: Neu5Ac(a2-6)Gal(b1-4)GlcNAc(b1-3)Gal(b1-3)GlcNAc
How it was run: as §1

[20] = target: Neu5Ac(a2-6)Gal(b1-4)GlcNAc(b1-3)Gal(b1-4)GlcNAc
How it was run: as §1

[21] = target: Neu5Ac(a2-6)Gal(b1-4)GlcNAc(b1-3)Gal(b1-4)GlcNAc(b1-2)Man(a1-3)[Neu5Ac(a2-6)Gal(b1-4)GlcNAc(b1-3)Gal(b1-4)GlcNAc(b1-2)Man(a1-6)]GalNAc
How it was run: as §1

[22] = target: Neu5Ac(a2-6)Gal(b1-4)GlcNAc(b1-3)Gal(b1-4)GlcNAc(b1-3)Gal(b1-4)GlcNAc
How it was run: as §1

[23] = target: Neu5Ac(a2-6)Gal(b1-4)GlcNAc(b1-3)Gal(b1-4)GlcNAc(b1-3)Gal(b1-4)GlcNAc(b1-2)Man(a1-3)[Neu5Ac(a2-6)Gal(b1-4)GlcNAc(b1-3)Gal(b1-4)GlcNAc(b1-3)Gal(b1-4)GlcNAc(b1-2)Man(a1-6)]GalNAc
How it was run: as §1

[24] = target: Neu5Ac(a2-6)Gal(b1-4)GlcNAc(b1-3)Gal(b1-4)GlcNAc(b1-3)GalNAc
How it was run: as §1

[25] = target: Neu5Ac(a2-6)Gal(b1-4)GlcNAc(b1-3)Gal(b1-4)GlcNAc(b1-3)[Neu5Ac(a2-6)Gal(b1-4)GlcNAc(b1-3)Gal(b1-4)GlcNAc(b1-6)]GalNAc
How it was run: as §1

[26] = target: Neu5Ac(a2-6)Gal(b1-4)GlcNAc(b1-3)Gal(b1-4)GlcNAc(b1-6)[Gal(b1-3)]GalNAc
How it was run: as §1

[27] = target: Neu5Ac(a2-6)Gal(b1-4)GlcNAc(b1-3)Gal(b1-4)[Fuc(a1-3)]GlcNAc(b1-3)Gal(b1-4)[Fuc(a1-3)]GlcNAc
How it was run: as §1

[28] = target: Neu5Ac(a2-6)Gal(b1-4)GlcNAc(b1-3)GalNAc
How it was run: as §1

[29] = target: Neu5Ac(a2-6)Gal(b1-4)GlcNAc(b1-3)[Neu5Ac(a2-6)Gal(b1-4)GlcNAc(b1-6)]GalNAc
How it was run: as §1

[30] = target: Neu5Ac(a2-6)Gal(b1-4)GlcNAc(b1-6)GalNAc
How it was run: as §1

[31] = target: Neu5Ac(a2-6)Gal(b1-4)GlcNAc(b1-6)[Gal(b1-3)GlcNAc(b1-3)]Gal(b1-4)Glc
How it was run: as §1

[32] = target: Neu5Ac(a2-6)Gal(b1-4)GlcNAc(b1-6)[Gal(b1-3)]GalNAc
How it was run: as §1

[33] = target: Neu5Ac(a2-6)Gal(b1-4)GlcNAc6S
How it was run: as §1

[34] = target: Neu5Ac(a2-6)GalNAc
How it was run: as §1

[35] = target: Neu5Ac(a2-6)GalNAc(b1-4)GlcNAc
How it was run: as §1

[36] = target: Neu5Ac(a2-6)GalNAc(b1-4)GlcNAc6S
How it was run: as §1

[37] = target: Neu5Ac(a2-6)GlcNAc(b1-4)GlcNAc
How it was run: as §1

[38] = target: Neu5Ac(a2-6)GlcNAc(b1-4)GlcNAc(b1-4)GlcNAc
How it was run: as §1

B1: Pbx1 (Cryptococcus neoformans) (protein)
chain: ATTKCLVSGDQDSINNALALGGEGTTVTLCPGSVHRLNSSIIFTAPSQTLTTLGNPKDRNRAMLVVDGEDLACAIRADCKQCSHAMIRSLVIDGNRPQLLRIPKGDALIEVGNAESQTVRDCKLYEPRGWSALHFREGDERQCRFGHIVDNEIGPCGEEWDDEYDSMDETKPLWGNPRADGISLACKDSIVERNVVYDATDGAIVLFGSAGSTVKNNHVYARTRVILGGINLVDYEPWDGDYTNVKVHHNHLYALGRYFKVGIVIGPASWSDDTESVVHSASVTDNEFSGGYWGYGIVVASAKNFEVLRNKVIWDGEQGVARFSGVPGSRCPKAPENGKPTAFLINRGSAKGIFQDDFVNGEVQHIICLNPDQDPPYKPWRFRDSPEAIAAKQAENPTANSAFDSRIAEALVSYQMSLLNSMDAMTQKVEHLTNPIVDDALPFVHEHERAEADKKARQEASRKEKESGNKDVDMLNVKVEELEKSGRRLKKALDGLKSDFEGLSGRLKKSADENKPIIETIFVTSQNLLLGATSQQN
- glycan array binding signal (z-score) [1]: 0.183
- glycan array binding signal (z-score) [2]: -0.519
- glycan array binding signal (z-score) [3]: -0.089
- glycan array binding signal (z-score) [4]: -0.15
- glycan array binding signal (z-score) [5]: -0.304
- glycan array binding signal (z-score) [6]: -0.681
- glycan array binding signal (z-score) [7]: -0.499
- glycan array binding signal (z-score) [8]: 0.004
- glycan array binding signal (z-score) [9]: -0.208
- glycan array binding signal (z-score) [10]: -0.135
- glycan array binding signal (z-score) [11]: 0.568
- glycan array binding signal (z-score) [12]: 0.033
- glycan array binding signal (z-score) [13]: 0.095
- glycan array binding signal (z-score) [14]: -0.525
- glycan array binding signal (z-score) [15]: 0.813
- glycan array binding signal (z-score) [16]: 2.36
- glycan array binding signal (z-score) [17]: 0.02
- glycan array binding signal (z-score) [18]: -0.36
- glycan array binding signal (z-score) [19]: -0.123
- glycan array binding signal (z-score) [20]: -0.807
- glycan array binding signal (z-score) [21]: 0.513
- glycan array binding signal (z-score) [22]: 0.314
- glycan array binding signal (z-score) [23]: 0.93
- glycan array binding signal (z-score) [24]: -0.499
- glycan array binding signal (z-score) [25]: -0.479
- glycan array binding signal (z-score) [26]: 1.17
- glycan array binding signal (z-score) [27]: 0.186
- glycan array binding signal (z-score) [28]: -0.569
- glycan array binding signal (z-score) [29]: 0.871
- glycan array binding signal (z-score) [30]: 0.858
- glycan array binding signal (z-score) [31]: 0.223
- glycan array binding signal (z-score) [32]: 0.736
- glycan array binding signal (z-score) [33]: -0.165
- glycan array binding signal (z-score) [34]: -0.606
- glycan array binding signal (z-score) [35]: -0.7
- glycan array binding signal (z-score) [36]: -0.237
- glycan array binding signal (z-score) [37]: -0.909
- glycan array binding signal (z-score) [38]: -0.39
